The supplement of paper PMC3334620
Over roughly 33,000 sequences, “E-score (-0.5 to 0.5)” has its median near -0.012; the highest 2% begin near 0.27. The list shows a part of the results.

The sequences below were run against T1, Vhr1 (UniProt P40522) (assay: PBM E-score (8-mer binding enrichment) (E-score (-0.5 to 0.5)); higher = stronger / more preferred TF binding; most listed sequences are background and not binding sites). Settings: protein concentration: 200 nM; construct: GST-full length.
T1 sequence: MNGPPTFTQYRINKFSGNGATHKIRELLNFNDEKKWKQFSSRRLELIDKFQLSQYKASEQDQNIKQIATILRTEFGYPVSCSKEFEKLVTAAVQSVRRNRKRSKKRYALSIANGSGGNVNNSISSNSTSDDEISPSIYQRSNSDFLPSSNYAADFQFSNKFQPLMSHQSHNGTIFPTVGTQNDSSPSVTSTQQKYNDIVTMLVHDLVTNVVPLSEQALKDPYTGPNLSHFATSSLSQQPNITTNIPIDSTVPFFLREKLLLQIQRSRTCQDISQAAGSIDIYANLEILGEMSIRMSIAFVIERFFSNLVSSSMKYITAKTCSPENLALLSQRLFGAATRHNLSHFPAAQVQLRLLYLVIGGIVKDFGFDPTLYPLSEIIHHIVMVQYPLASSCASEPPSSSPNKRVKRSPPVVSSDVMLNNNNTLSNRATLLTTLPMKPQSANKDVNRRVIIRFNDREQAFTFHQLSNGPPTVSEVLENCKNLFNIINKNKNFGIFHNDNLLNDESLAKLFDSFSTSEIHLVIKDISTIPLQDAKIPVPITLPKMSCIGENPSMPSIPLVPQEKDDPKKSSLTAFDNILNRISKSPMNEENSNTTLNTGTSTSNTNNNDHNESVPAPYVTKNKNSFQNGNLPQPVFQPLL
Summary of the method: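 Universal all-10-mer Agilent arrays, fresh or stripped once, were converted to double-stranded form by primer extension. GST-tagged yeast transcription factors from PURExpress in vitro transcription/translation, full-length or DNA-binding domain only, were applied at about 100-200 nM and detected with fluorescent anti-GST. After masliner normalisation, the Universal PBM Analysis Suite scored each ungapped eight-base word together with its reverse complement by E-score.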

| Sequence | PBM E-score |
| --- | --- |
| TCCGCCCA | -0.0417 |
| TAGGTATA | 0.116 |
| AAATATGC | -0.13 |
| GAATGGAC | -0.0671 |
| CCGTATTA | 0.109 |
| ATGGTGTC | 0.27 |
| ACGATTCC | 0.185 |
| CAATGGGA | -0.023 |
| ATGGTATC | 0.287 |
| GTTATTGA | -0.0104 |
| ATTCGTCA | 0.0532 |
| ACCCTGAC | 0.184 |
| GGATCTGA | 0.0507 |
| AGTATCTA | 0.0871 |
| CCTTAGGC | -0.264 |
| AGTGTGCG | 0.0451 |
| CCGCTGTA | 0.13 |
| CGCCCACG | -0.0841 |
| CAATCGCA | 0.143 |
| ACGACTCA | 0.445 |
| GTCACTTA | 0.155 |
| ATGGGCCG | 0.121 |
| TTAATTAA | -0.0237 |
| GACGCATC | 0.00633 |
| CGCCTAGA | -0.032 |

| Sequence | PBM E-score |
| --- | --- |
| CATAGGCA | -0.121 |
| GGGAAGTA | -0.02 |
| TCCCCGAA | -0.218 |
| GGTCCTAA | -0.044 |
| ACAGGCGT | -0.22 |
| ATCTTTAA | -0.105 |
| ACTTATAT | 0.199 |
| AGGGGCGC | 0.0808 |
| AAGGAGCC | -0.114 |
| AAACTTTC | -0.246 |
| CCATGCTC | 0.118 |
| CAAAAGAA | 0.00762 |
| CTCTGTGC | -0.0953 |
| CAAGATTA | 0.0396 |
| CTTGTCTC | -0.109 |
| AAAGCCCC | -0.147 |
| CAAAGCAG | -0.0823 |
| AGGAGGAG | -0.171 |
| CTTTGATA | 0.00159 |
| CGGTGTTC | 0.0334 |
| AGGCGAAT | -0.146 |
| GGTACGAA | 0.14 |
| GCTCACAC | 0.148 |
| GAGATGCA | 0.17 |
| ATGCTGGG | 0.097 |

| Sequence | PBM E-score |
| --- | --- |
| AATTTACG | -0.0773 |
| ACCAGTCG | 0.166 |
| AAGTCGGC | -0.177 |
| CAGAGAAA | 0.153 |
| ATCGTGTC | 0.115 |
| ATTAATGA | 0.199 |
| ACGTGAGG | -0.107 |
| ATCAGAGG | -0.156 |
| AAACAATC | -0.063 |
| CAATCCCA | -0.0663 |
| ATACATGG | 0.251 |
| CGCTTGAA | -0.0421 |
| CTGGATTC | 0.0775 |
| ACTTCCTC | -0.0661 |
| CAGCCCTG | -0.064 |
| AAGACAAA | -0.172 |
| CAGCGGAC | 0.023 |
| TAAAGGTA | -0.141 |
| CACTAAAG | -0.0741 |
| CTTTGATC | -0.0357 |
| ATACCTCA | 0.128 |
| ATTACAAC | -0.0561 |
| CCCACTTA | 0.0215 |
| CGCAACAG | -0.142 |
| CCAGATCG | -0.0784 |

| Sequence | PBM E-score |
| --- | --- |
| ATTTTCAA | -0.264 |
| ACATAGAA | 0.169 |
| AGCTGCCA | 0.022 |
| CAAACTAC | 0.147 |
| GCTCCCAC | -0.108 |
| CGTTCCGC | -0.0349 |
| CAACTGTA | 0.0365 |
| CCACTTCG | 0.0216 |
| ATTGTTTC | 0.217 |
| ATGTCAGG | 0.0208 |
| CCCGAGGA | -0.105 |
| CACCTAAC | 0.0146 |
| CTGGTTTA | -0.0732 |
| TCTCGACA | -0.122 |
| AGTACACA | 0.284 |
| GCTTTCGA | -0.197 |
| CAGCTACC | 0.0251 |
| CAATCCGG | 0.161 |
| ATTGCTCA | 0.0307 |
| ATTTGCTC | 0.0575 |
| AGATTGTG | 0.0611 |
| CGACGCAG | -0.14 |
| TCCCGTAA | -0.213 |
| AGAGAAAG | -0.215 |
| AACAGCTG | 0.00078 |

| Sequence | PBM E-score |
| --- | --- |
| AACTGCAC | -0.0766 |
| GCTGAAGA | -0.0896 |
| GCAAGTGC | -0.0921 |
| AACCCTAA | -0.043 |
| ATAGAAGG | -0.191 |
| AGCCCCTG | -0.146 |
| AGTGCCCG | -0.113 |
| CTGCGCTC | -0.204 |
| ACGCGTCT | -0.18 |
| GACGTCAA | -0.0965 |
| AGATTTTC | -0.112 |
| CGTCAGAC | 0.0113 |
| AACGGCGC | 0.00854 |
| CGTCCGAA | -0.0573 |
| GTCTTTTA | -0.186 |
| CACGGCAG | -0.0119 |
| AACGTAAA | -0.15 |
| ATGATGTG | 0.224 |
| ATAGGTCC | 0.0453 |
| CTAGGAAC | -0.199 |
| CTACAGCC | -0.18 |
| AAAACTGC | -0.161 |
| AACCGTTG | -0.016 |
| CGTGGACA | -0.105 |
| ACGGTCGA | -0.0368 |

| Sequence | PBM E-score |
| --- | --- |
| CGCATGCG | 0.157 |
| ACAGGGCC | -0.12 |
| GCACGGGC | -0.168 |
| ATCTTTTA | -0.0843 |
| AAAGCCGT | -0.195 |
| CTGAATGA | 0.143 |
| CGAGACAC | -0.0138 |
| GTTGTTTA | 0.0832 |
| AGGCCAAC | -0.156 |
| CTGAATCA | 0.402 |
| GCATGGAC | 0.0779 |
| CAGACCGG | 0.0933 |
| GCGGCCGC | 0.101 |
| ACGAAGTC | -0.00207 |
| ACACTCAT | 0.227 |
| CCCTAATC | 0.0393 |
| CATGCCCA | -0.0996 |
| ACGAAAGG | -0.195 |
| ATAAACGA | 0.0705 |
| CAACGACG | 0.0308 |
| AGCGTGTG | 0.04 |
| ACTCTAGA | 0.19 |
| ATCTTGGA | 0.0371 |
| GCTTTTAC | -0.0421 |
| GTGAACGA | 0.00095 |

| Sequence | PBM E-score |
| --- | --- |
| CACGAGAA | -0.00753 |
| GCGGTTAA | 0.0419 |
| GACCTAGC | -0.186 |
| CTCGTGAA | 0.0314 |
| CCATCGGA | 0.0656 |
| ATTGATGC | 0.228 |
| GCATAACA | -0.116 |
| CGATCGAG | 0.172 |
| AGAGGCCG | -0.212 |
| ATATAAAA | 0.0686 |
| CCGGCACA | 0.00638 |
| ACGGTTTA | 0.0279 |
| ACTTATCT | -0.0327 |
| CTCCGGAA | -0.0904 |
| GACTACGC | 0.175 |
| ACTATCCG | 0.187 |
| ATATTTGG | 0.0253 |
| CGATGGAC | 0.0476 |
| AATTCAAC | 0.0395 |
| ATAACAAG | 0.142 |
| AAAGGTAA | -0.217 |
| CCTACAGG | -0.253 |
